The supplement of paper PMC5499739
The full ranking holds about 16,000 sequences; the median of “Z-score” is about -0.37, and the highest 2% start at about 3.1. The list shows a part of the results.

test system: RBM10 RRM1-ZnF-RRM2 (GST-tagged construct); test: RNAcompete 7-mer binding Z-score; higher = stronger binding preference
How it was run: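 A one-sided Z-score for enrichment, taken across the probes containing each heptamer motif, was assigned to every such motif. The RNA came from a designed pool of 241 399 sequences up to 41 nt (1.5 nmol), bound by 20 pmol of GST-tagged RBM10 constructs in 1 ml Hepes pH 7.8 buffer with glutathione Sepharose beads for 30 min at 4°C. Four 2-min washes at 4°C preceded identification of bound RNA by microarray hybridisation.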

First: GCCAUAA
Second: GGAAUCC
The “RNAcompete 7-mer binding Z-score” value of the first is lower: -0.69 for the first, 0.155 for the second.

First: GUUGCAA
Second: AAAGGCU
The “RNAcompete 7-mer binding Z-score” value of the first is lower: 0.00216 for the first, 0.796 for the second.

Going from GCGUAGG to AUUCCCG, the “RNAcompete 7-mer binding Z-score” value falls from 2.21 to -0.821.

Going from AUGCAGA to AGCUAUA, the “RNAcompete 7-mer binding Z-score” value falls from 0.243 to -0.224.

First: CCAGGUA
Second: AGACGGC
The “RNAcompete 7-mer binding Z-score” value of the first is higher: 0.377 for the first, -0.326 for the second.

Compared with GGUACGA, CUUACCA is lower in “RNAcompete 7-mer binding Z-score” value: 1.4 for the first, -0.657 for the second.

First: UUAUUUC
Second: AUUUCGC
The “RNAcompete 7-mer binding Z-score” value of the first is higher: -0.792 for the first, -0.996 for the second.

First: GCAGUCU
Second: GGACCCC
The “RNAcompete 7-mer binding Z-score” value of the first is lower: -0.533 for the first, -0.103 for the second.

Going from CCGCAAA to GGCAAGA, the “RNAcompete 7-mer binding Z-score” value rises from -0.69 to 1.07.

First: ACCGCGA
Second: UUCCAAU
The “RNAcompete 7-mer binding Z-score” value of the first is lower: -0.628 for the first, -0.621 for the second.

Compared with GAUCAGC, UUACAGC is lower in “RNAcompete 7-mer binding Z-score” value: -0.205 for the first, -0.42 for the second.

Going from UCAAAGC to GGCGGUG, the “RNAcompete 7-mer binding Z-score” value rises from -0.304 to 2.23.

First: AAGGCAC
Second: CGGGCUU
The “RNAcompete 7-mer binding Z-score” value of the first is higher: 1.35 for the first, 0.578 for the second.

Compared with GAUAACG, UACUCGU is lower in “RNAcompete 7-mer binding Z-score” value: 0.268 for the first, -0.672 for the second.

First: ACCCCGG
Second: ACGAGAA
The “RNAcompete 7-mer binding Z-score” value of the first is lower: -0.362 for the first, 0.348 for the second.

First: UAUCUCC
Second: AAUCUGU
The “RNAcompete 7-mer binding Z-score” value of the first is higher: -0.734 for the first, -0.792 for the second.

First: AAGGAAA
Second: UUUUUGG
The “RNAcompete 7-mer binding Z-score” value of the first is higher: 3.21 for the first, -0.151 for the second.

Compared with GAAGGCC, AGACUCC is lower in “RNAcompete 7-mer binding Z-score” value: 0.589 for the first, -0.948 for the second.

Going from CAAUGGC to CUAUAGC, the “RNAcompete 7-mer binding Z-score” value falls from 0.548 to -0.544.

Going from AGCCGAC to AUGGAGG, the “RNAcompete 7-mer binding Z-score” value rises from -0.664 to 4.33.

First: UCAUGGC
Second: GCUAUCA
The “RNAcompete 7-mer binding Z-score” value of the first is higher: -0.227 for the first, -0.428 for the second.

First: GGGAGUG
Second: GAAGUAU
The “RNAcompete 7-mer binding Z-score” value of the first is higher: 3.84 for the first, 0.115 for the second.

Compared with CAUUCAA, GCUAAGC is lower in “RNAcompete 7-mer binding Z-score” value: -0.388 for the first, -0.664 for the second.

First: AGCGUUA
Second: CCGCAAU
The “RNAcompete 7-mer binding Z-score” value of the first is higher: 0.0422 for the first, -0.763 for the second.

First: ACAAGAU
Second: UAAGUUG
The “RNAcompete 7-mer binding Z-score” value of the first is lower: -0.224 for the first, 0.213 for the second.

Going from AGACAGC to UCGUCGU, the “RNAcompete 7-mer binding Z-score” value rises from -0.475 to -0.195.

First: AGGACAU
Second: ACUCAUA
The “RNAcompete 7-mer binding Z-score” value of the first is higher: 0.65 for the first, -0.857 for the second.

Going from GGCCUAG to GUACUGG, the “RNAcompete 7-mer binding Z-score” value rises from -0.264 to 0.494.

Compared with ACUGGAA, CAAUCCC is lower in “RNAcompete 7-mer binding Z-score” value: 0.712 for the first, -0.533 for the second.

Compared with GGGAACC, ACCGGGA is lower in “RNAcompete 7-mer binding Z-score” value: 1.89 for the first, 1.12 for the second.

Going from UGAGAGU to CAGAUCG, the “RNAcompete 7-mer binding Z-score” value falls from 0.468 to -0.114.

Going from ACGCCGU to ACGUCGG, the “RNAcompete 7-mer binding Z-score” value rises from -0.511 to 0.261.

First: GUAGAGG
Second: AUUGCAG
The “RNAcompete 7-mer binding Z-score” value of the first is higher: 4.02 for the first, 0.137 for the second.

Compared with GCGCCGG, AUCAGCU is lower in “RNAcompete 7-mer binding Z-score” value: -0.198 for the first, -0.704 for the second.

Compared with GGUUUCU, AGUGUUU is higher in “RNAcompete 7-mer binding Z-score” value: -0.0233 for the first, 0.0277 for the second.

Going from CAAACUC to AAACAAG, the “RNAcompete 7-mer binding Z-score” value rises from -0.887 to 0.585.

First: CCCGUGA
Second: CGCCGUA
The “RNAcompete 7-mer binding Z-score” value of the first is higher: -0.377 for the first, -0.588 for the second.

First: CGAUCCA
Second: UACGCUA
The “RNAcompete 7-mer binding Z-score” value of the first is lower: -0.61 for the first, -0.508 for the second.

First: AGUAGAG
Second: GAGGCAC
The “RNAcompete 7-mer binding Z-score” value of the first is higher: 1.26 for the first, 0.778 for the second.

Compared with UCUGCAG, CAGUUCG is higher in “RNAcompete 7-mer binding Z-score” value: -0.664 for the first, -0.573 for the second.

First: AAUGUCA
Second: GCAGACG
The “RNAcompete 7-mer binding Z-score” value of the first is lower: -0.315 for the first, 0.949 for the second.

Going from AGAAAAG to CUCCCCA, the “RNAcompete 7-mer binding Z-score” value falls from 1.31 to -0.734.

Going from AAGUCAC to GGAAUAU, the “RNAcompete 7-mer binding Z-score” value rises from -0.493 to 1.17.

Compared with GGUGUUC, UCGCAGC is lower in “RNAcompete 7-mer binding Z-score” value: 0.355 for the first, -0.271 for the second.

First: AGCAGCU
Second: ACCGCCC
The “RNAcompete 7-mer binding Z-score” value of the first is higher: -0.409 for the first, -0.956 for the second.

Going from ACUGAUU to GAGGGAU, the “RNAcompete 7-mer binding Z-score” value rises from -0.588 to 3.31.
